Among all 48,000 compounds or so, about 450 (0.94%) were called active. Not shown: some 19% with an inconclusive outcome. Calls follow the shape of the dose curve; as a rule, active = well fitted inhibition curve with a large enough effect; inconclusive = small, poorly fitted or top-dose-only effect; inactive = no such curve, though single readings can be large or run the other way. The list shows a part of the results.
Test: Primary qHTS for Identification of Small Molecule Inhibitors of Huntingtin Promoter Activity; also: nearly all actives have a fitted effect of over 50% in size
Conditions: HEK293 HTT promoter firefly luciferase reporter (activity 0% = vehicle and -100% = no light), 24 h; series mostly up to 57.5 µM; activity change, negative = inhibition: at the top concentration
Outline: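 Firefly luciferase signal from promoter-reporter HEK293 cells was scaled between vehicle (0%) and zero RLU (-100%). Compounds were tested at final concentrations of up to 57.5 uM over 24 h at 37 degrees C. PTC124 at 50 uM final served as control inhibitor.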

Activity change, negative = inhibition, inactive:
O=C(NCCc1ccccc1Cl)c1cc2ccccn2n1 51.1%
CCCCn1c(=O)c2oc3ccccc3c2n(Cc2ccc(C)cc2)c1=O -0.366%
Cc1cc(SCC(=O)Nc2ccc(F)cc2F)nc(=O)[nH]1 -10.3%
COc1ccc(NC(=O)Cn2c(=O)n(-c3ccc(OC)cc3)c(=O)c3sc4ccccc4c32)cc1 5.84%
COc1ccc2c(CNCc3ccco3)c(C(=O)O)n(Cc3cccc(F)c3)c2c1 -16.5%
CCCN(CCC)C(=O)C1CCN(c2cc(C)nc3c(-c4ccc(Cl)cc4)c(C)nn23)CC1 -7.77%
COc1ccc(C(=O)Nc2ccc(-c3nc4ccccc4s3)c(Cl)c2)cc1Cl 6.36%
Cn1c(NCCCO)nc2c1c(=O)n(Cc1cccc(F)c1)c(=O)n2C -3.48%
COc1cc(C(=O)Nc2cc(C)c(O)c(-c3nc4ccccc4s3)c2)cc(OC)c1OC -8.14%
Cc1cc2nc(-c3ccc(OCc4ccccc4F)cc3)cc(C(F)(F)F)n2n1 0.481%
CCCc1nn2c(=O)cc(COC(=O)c3ccc4c(c3)OCO4)nc2s1 -7.79%
CCOC(=O)c1cccc(NC(=O)C2=C(C)C(=O)OC23CCCCC3)c1 -9.83%
Cn1c(NCCN)nc2c1c(=O)n(Cc1ccccc1)c(=O)n2C -20.9%
CCOc1ccc(S(=O)(=O)NCc2cccn2Cc2cccc(C)c2)cc1 -0.849%
CC(C)COc1ccc(C(=O)N(Cc2cccc(F)c2)C2CCS(=O)(=O)C2)cc1 (centres undefined) -6.69%
CCOC(=O)c1cnc2ccc(OCC)cc2c1NCCc1ccc(OC)c(OC)c1 -16.9%
CCCn1c(=N)c(C(=O)NC2CCCCC2)cc2c(=O)n3cc(C)ccc3nc21 1.81%
CCN1CCc2c(sc(-n3cccc3)c2C(CCC(C)C)NC(=O)NCCC(=O)OC)C1 (centres undefined) -25.2%
CCc1cccc(C)c1NC(=O)C(NS(=O)(=O)c1ccc2c(c1)CCC(=O)N2)c1ccccc1 (centres undefined) -14.3%
CCCn1c2ccccc2c2cnn(CC(=O)NCCCOC(C)C)c(=O)c21 -13.4%
Cc1cccc(NC(=O)c2cc3c([nH]c2=O)CC(c2ccccc2)CC3=O)c1 (centres undefined) -1.31%
O=C(Cn1c(=O)n(Cc2ccc(F)cc2)c(=O)c2sc3ccccc3c21)Nc1ccc(F)cc1F 0.107%
COC(=O)CCNC(=O)N1CCN(c2nnc(C)c3c(C)n(-c4ccccc4)nc23)CC1 1.54%
COc1cc(C(=O)NCc2nc(-c3ccc(Cl)cc3)no2)cc(OC)c1OC -8.5%
COc1cccc(CNC(=O)Cn2cccc2C(=O)c2ccccc2)c1 10.8%
Cc1cccc(CN2C(=O)c3ccccc3S(=O)(=O)c3ccc(C(=O)OCC4CCCO4)cc32)c1 (centres undefined) 9.81%
CCc1ccc(CNC(=O)C2COc3ccccc3C2)cc1 (centres undefined) 13.3%
CCOC(=O)c1cc(S(=O)(=O)N2CCN(c3ccccc3OC)CC2)[nH]n1 -10.8%
Cc1ccc(N2CC(NC(=O)C3CCCCC3)CC2=O)cc1 (centres undefined) -20.3%
COc1ccc(NC(=O)CSCc2cc(=O)c3cc(Cl)ccc3[nH]2)cc1 2.33%
CCOc1ccc(C2CC(=O)Nc3c2c(=O)[nH]c2ncnn32)cc1 (centres undefined) -15.6%
CCn1c(CNC(=O)c2ccc(OC)cc2)nnc1SCC(=O)Nc1ccc(F)cc1 -1.03%
CCc1ccc(C(=O)c2cn(CC(=O)Nc3ccc(F)cc3)c3ccc(F)cc3c2=O)cc1 -28.3%
Cc1cccc(C(=O)Nc2cc(-c3ccccc3F)nn2-c2ccccc2)c1 -29.2%
Cc1cccc(C)c1NC(=O)CC12CCCN1CCC2 -5.12%
COc1cc(NS(=O)(=O)c2cc3[nH]c(=O)[nH]c3cc2C)cc(OC)c1OC 5.76%
NC(=O)c1ccc(-c2nc(-c3ccc4c(c3)OCCO4)c(-c3ccccn3)[nH]2)cc1 -1.1%
Cc1ccc2c(c1)-c1c(cnc3cc(-c4ccc(Cl)cc4)nn13)CO2 -0.135%
Cc1ccc(CCNC(=O)c2sc3nc4n(c(=O)c3c2C)CCCC4)cc1 -17.8%
COc1ccccc1CNC(=O)c1ccc2c(c1)nc(C)n2-c1cccc(C)c1 -17.2%
O=C(O)c1ccc(OCCCOc2ccc(C(=O)O)cc2)cc1 11.2%
COc1ccc(NC(=O)C(C)N2Cc3ccccc3C2=O)cc1OC (centres undefined) -7.41%
Cc1ccc(COC(=O)c2[nH]c3c(c2C)C(=O)CC(c2ccc(Cl)cc2)C3)cc1 (centres undefined) 3.39%
CC(C)CC(=O)n1nc(-c2ccco2)nc1NCc1ccc(Cl)cc1 11.6%
Cc1ccc(C)c(CN2C(=O)CSc3ccc(C(=O)NCc4ccccc4)cc32)c1 -19.1%
CCc1cccc(NC(=O)Cn2nc(C)c3sc4ccccc4c3c2=O)c1 -6.26%
COc1ccc(Cn2c(=O)c3ccccc3n3c(-c4ccc(C)cc4)nnc23)cc1 -18.7%
Cc1ccc(OCc2cc(=O)n3cc(C)sc3n2)c(NC(=O)c2ccco2)c1 -8.17%
CC(C)c1cc2c(cc1S(=O)(=O)O)[C@@]1(C)CCC[C@@](C)(C(=O)O)[C@@H]1CC2 11.9%
Cc1ccc(C)c(NC(=O)Cn2cc(S(=O)(=O)NC(C)C)c(S(=O)(=O)NC(C)C)c2)c1 -12.1%
COc1cc(C(=O)Nc2c(C(=O)Nc3ccccc3F)oc3ccccc23)cc(OC)c1OC -25.2%
O=C(Nc1cccc(NC(=O)c2ccc(Br)cc2)c1)c1ccccc1 -5.3%
CCCn1c(NCc2ccccc2F)nc2ccccc21 25.1%
CCC(=O)N1c2ccc(S(=O)(=O)CCC(=O)N3CCN(c4ccc(F)cc4)CC3)cc2CC1C (centres undefined) -31.9%
COc1ccc2c(c1)CC(NC(=O)Nc1ccc(Br)c(C)c1)CO2 (centres undefined) -4.56%
COc1ccc(-c2nnc(SCC(=O)Oc3cc(C)ccc3C)o2)cc1 -11.3%
CCOC(=O)c1cc2c(=O)n3ccccc3nc2n(CC2CCCO2)c1=NC(=O)c1ccc(F)cc1 (centres undefined) -14.1%
O=C(NCc1cccc(F)c1)c1ccc2nc(CCc3ccccc3)oc2c1 3.76%
CCCCCNC(=O)c1ccc2c(=O)n(CCc3ccccc3)c(=O)[nH]c2c1 2.74%
CCOC(=O)N1CCc2c(sc(NCc3cccc(F)c3)c2C(=O)Nc2ccc(OCC)cc2)C1 13.3%
CCN(C(=O)c1cccn(Cc2cccc(Cl)c2)c1=O)c1ccccc1 -13.6%
COc1cc(C(=O)NC2CCN(C)CC2)ccc1Nc1ncc2c(n1)N(C1CCCC1)CCC(=O)N2C(C)C -13.8%
CC(=O)c1ccc(S(=O)(=O)N2CCn3cccc3C2c2ccc(F)c(F)c2)cc1 (centres undefined) -21.5%
CCc1cc(C(=O)NCc2ccc(F)cc2)no1 22.3%
CC(C)Oc1ccc(CNC(=O)c2ccc3c(c2)N(C)C(=O)C2CCCCN32)cc1 (centres undefined) -8.26%
Cc1ccc(N2CC(NC(=O)C3CCCC3)CC2=O)cc1C (centres undefined) -25.1%
O=C(COc1ccccc1Cl)Nc1nc(-c2ccc(F)cc2)ns1 -1.42%
CCN1CCN(c2cc(C)c3cc(NC(=O)/C=C/c4ccc(OCCC(C)C)cc4)ccc3n2)CC1 -4.15%
Cc1ccc(NC(=O)CSc2nc(C3CCCC3)nc3c2c(=O)n(C)c(=O)n3C)c(C)c1 13.2%
CCc1nnc(SCc2nc(-c3cccc(C)c3)oc2C)c2cc3sc(C)cc3n12 6.99%
COc1ccc(C(=O)Nc2cc(NC(=O)c3ccco3)ccc2OC)cc1Cl -4.18%
CCOC(=O)c1c(-c2ccccc2)oc2cc(Br)c(OCc3ccccc3)cc12 -7.72%
CCn1c(=N)c(C(=O)NC2CCCC2)cc2c(=O)n3cc(C)ccc3nc21 18.2%
Cc1ccc(OCCCCn2nnc3sc4c(c3c2=O)CCC(C)C4)cc1 (centres undefined) 13.3%
Cc1ccc(NC(=O)C2CCCN(S(=O)(=O)c3cccc4nsnc34)C2)c(C)c1 (centres undefined) -14.7%
CCOc1ccc(C(=O)NCCc2csc(-c3cccnc3)n2)cc1 -8.15%
Cc1ccc(Cl)cc1Nc1nn2c(=O)c3ccc(C(=O)NC4CCC(C)CC4)cc3nc2s1 (centres undefined) -6.18%
CN1CCN(C2(CNC(=O)COc3ccc(C(C)(C)C)cc3)CCCCC2)CC1 -24.1%
O=C(Cn1c(=O)n(-c2ccc(F)c(Cl)c2)c(=O)c2sc3ccccc3c21)NC1CCCCC1 -6%
COc1cc(C[C@@H](CO)[C@H](CO)Cc2ccc(O)c(OC)c2)ccc1O 355%
CC(C)c1ccc(CNCCSc2nnnn2-c2ccccc2)cc1 -19%
CCc1ccc(NC(=O)Cn2c(=O)n(CCC(=O)NCCc3ccc(OC)c(OC)c3)c(=O)c3ccccc32)cc1 -10.9%
Cc1cc(C)cc(NC(=O)C2CCN(c3nc4ccccc4nc3C(F)(F)F)CC2)c1 -14.4%
Cc1ccc2c(=O)cc(C(=O)Nc3sc4c(c3C(=O)NCc3ccccc3)CCCC4)oc2c1C 6.11%
CCCCCCOc1ccc(C2C(=O)N(C3CCCCC3)CC(=O)N2CCCC)cc1 (centres undefined) -15.7%
CCOc1cccc(C(=O)Nc2cc(-c3ccc(C)cc3)no2)c1 15.5%
Cc1noc(Cn2c(=O)c3cc4c(cc3n(CC(=O)Nc3ccccc3Br)c2=O)OCO4)n1 -11.4%
O=C(Nc1sc2c(c1C(=O)N1CCCCC1)CCCC2)c1ccccc1Cl -21.6%
CN(C)c1ccc(CNC(=O)CCS(=O)(=O)c2ccc3c(c2)oc(=O)n3C)cc1 -2.62%
CCCS(=O)(=O)N1CCCC(C(=O)NCCOC)C1 (centres undefined) -17.2%
CCOc1ccc(NCc2cccn2-c2nnc(N3CCC(C(=O)NCCOC)CC3)s2)cc1 -25.9%
C=C(C)Cn1c(=O)c2c(nc3n2CCN3c2ccc(F)cc2)n(C)c1=O 4.61%
Cc1cc(=O)n2nc(N3CCC(C(=O)NCc4ccc(F)cc4)CC3)sc2n1 -8.21%
COc1ccccc1/C=C/c1nc(C#N)c(NCCc2ccccc2)o1 -10.5%
CCOc1ccc(-c2nc(Cn3ccn4nc(-c5ccc(OCC)c(Cl)c5)cc4c3=O)c(C)o2)cc1 -8.33%
Cc1ccccc1Nc1cc(C(=O)NCc2cccs2)c2ccccc2n1 19.8%
COc1ccc(C)cc1N(C)C(=O)c1c2c(nc3ccccc13)C(=O)N(C1CCCCC1)C2 -27.5%
Cc1cccc(OCCn2c(SCC(=O)O)nc3ccccc32)c1 -9.38%
COc1ccc(-c2nc3scc(CCNS(=O)(=O)c4ccc(NC(C)=O)cc4)n3n2)cc1 -24.5%

— PubChem BioAssay AID1508623 (National Center for Advancing Translational Sciences (NCATS), 2021)
